From the supplement of paper PMC7826260
This is one part of the list. The data describe in vitro nicking of single-stranded DNA by Rep domains at 3 µM enzyme and 37 °C for 1 h; the strands have 90 letters, of which the middle is given. A value is the log2 ratio of uncut reads to the pool without enzyme; the lower, the more was cut; hits are not called. Because reads are shares of a total, they shift together; values above 0 arise when much of the pool is cut.

test system: T1, Rep nickase domain of cabbage leaf curl virus; experiment: uncleaved DNA left, log2 of reads against the no-enzyme library (log2 ratio); higher = less cleavage (more negative = more Rep cleavage of the k-mer); sequences stand for … in CTCGTCCG…ACCGGAGA
T1 sequence (Rep 1-116, printed without the tag): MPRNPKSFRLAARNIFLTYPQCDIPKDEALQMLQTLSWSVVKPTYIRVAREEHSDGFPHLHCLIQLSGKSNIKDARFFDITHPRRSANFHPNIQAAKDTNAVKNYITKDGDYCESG
Experimental: (§1)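 A pool of 90-nt single-stranded DNAs with seven random bases just before the constant AC of the nick site (name = the seven bases) was cut by 3 µM recombinant His6-SUMO-tagged Rep nickase domain (300 nM DNA, 50 mM HEPES pH 8.0, 50 mM NaCl, 1 mM MnCl2, 1 h, 37 °C, three replicates). Uncut DNA was amplified and sequenced.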

Row | Sequence | uncleaved DNA left (log2)
1 | GATCGCT | -0.238
2 | CAATATC | -3.35
3 | TTATGGT | -1.84
4 | CTATGCT | -1.76
5 | TTTTCAG | -0.726
6 | TAGCGTT | -0.913
7 | AAGGACA | 0.295
8 | TCCCACC | -0.034
9 | ATTCCGC | -0.374
10 | AGAAGGG | -0.218
11 | CGCTCAC | -0.0405
12 | TGTTGCA | -0.73
13 | CCAATGA | -0.202
14 | GTGAGGT | 0.444
15 | GACTTTC | 0.312
16 | AGACGCC | 0.594
17 | AGTGTTA | 0.0178
18 | ACGTTTA | -0.325
19 | CCAGATC | 0.206
20 | TACATCA | -0.025

Row | Sequence | uncleaved DNA left (log2)
21 | TTGCTCA | -0.459
22 | ATGGATC | 0.161
23 | GTGCCAG | -0.251
24 | TGCTGTG | -0.6
25 | CCGGGCC | 0.324
26 | CCGGACT | 0.445
27 | AGTGGCG | -0.616
28 | GTTATCC | 0.347
29 | CGACTGC | -0.0757
30 | CTGTTCC | 0.0232
31 | CAGCTAA | -0.129
32 | GACGGGC | 0.428
33 | TCCGAGC | 0.452
34 | ATATCCA | -0.103
35 | CCTATAT | 0.137
36 | CACAACC | -0.177
37 | ACAAAGC | -0.311
38 | ACAAGCG | -0.504
39 | TGGTAAG | -0.536
40 | TGTTGTG | -0.817

test system: T2, Rep nickase domain of chickpea chlorotic dwarf virus; experiment: as above
T2 sequence (Rep 1-124, printed without the tag): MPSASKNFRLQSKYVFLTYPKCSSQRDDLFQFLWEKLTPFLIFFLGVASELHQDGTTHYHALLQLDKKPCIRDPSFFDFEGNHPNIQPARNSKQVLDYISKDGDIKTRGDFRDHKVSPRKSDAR
Experimental: as §1

Row | Sequence | uncleaved DNA left (log2)
41 | GATCGCT | -0.765
42 | CAATATC | -3.02
43 | TTATGGT | -1.5
44 | CTATGCT | -1.86
45 | TTTTCAG | -0.893
46 | TAGCGTT | -2.17
47 | AAGGACA | 0.677
48 | TCCCACC | -0.641
49 | ATTCCGC | -0.575
50 | AGAAGGG | -0.131
51 | CGCTCAC | -0.538
52 | TGTTGCA | -0.897
53 | CCAATGA | -0.225
54 | GTGAGGT | 1.06
55 | GACTTTC | 0.662
56 | AGACGCC | 1.2
57 | AGTGTTA | 0.172
58 | ACGTTTA | -1.36
59 | CCAGATC | -0.0533
60 | TACATCA | -2.16

Row | Sequence | uncleaved DNA left (log2)
61 | TTGCTCA | -0.909
62 | ATGGATC | 1.17
63 | GTGCCAG | 0.0203
64 | TGCTGTG | -0.578
65 | CCGGGCC | 0.682
66 | CCGGACT | 0.675
67 | AGTGGCG | -0.342
68 | GTTATCC | 0.913
69 | CGACTGC | 0.549
70 | CTGTTCC | 0.0697
71 | CAGCTAA | -0.754
72 | GACGGGC | 1
73 | TCCGAGC | 0.917
74 | ATATCCA | -1.17
75 | CCTATAT | -0.801
76 | CACAACC | -2.05
77 | ACAAAGC | -0.226
78 | ACAAGCG | 0.936
79 | TGGTAAG | -0.512
80 | TGTTGTG | 0.0752

test system: T3, Rep nickase domain of faba bean necrotic yellows virus; experiment: as above
T3 sequence (Rep 1-98, printed without the tag): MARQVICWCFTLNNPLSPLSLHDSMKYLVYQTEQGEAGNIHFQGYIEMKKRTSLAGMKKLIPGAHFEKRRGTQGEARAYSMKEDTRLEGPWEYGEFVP
Experimental: as §1

Row | Sequence | uncleaved DNA left (log2)
81 | GATCGCT | -0.0427
82 | CAATATC | -0.082
83 | TTATGGT | 0.144
84 | CTATGCT | -0.0557
85 | TTTTCAG | -0.0035
86 | TAGCGTT | -0.17
87 | AAGGACA | -0.0109
88 | TCCCACC | -0.157
89 | ATTCCGC | 0.036
90 | AGAAGGG | 0.0395
91 | CGCTCAC | -0.0788
92 | TGTTGCA | -0.0919
93 | CCAATGA | -0.0279
94 | GTGAGGT | -0.0839
95 | GACTTTC | -0.104
96 | AGACGCC | 0.064
97 | AGTGTTA | -0.217
98 | ACGTTTA | 0.121
99 | CCAGATC | 0.0332
100 | TACATCA | -0.0345

Row | Sequence | uncleaved DNA left (log2)
101 | TTGCTCA | -0.0871
102 | ATGGATC | 0.0656
103 | GTGCCAG | -0.0631
104 | TGCTGTG | 0.0887
105 | CCGGGCC | -0.0134
106 | CCGGACT | -0.12
107 | AGTGGCG | 0.0663
108 | GTTATCC | 0.0398
109 | CGACTGC | 0.00866
110 | CTGTTCC | -0.274
111 | CAGCTAA | -0.0809
112 | GACGGGC | 0.0249
113 | TCCGAGC | 0.0121
114 | ATATCCA | -0.0176
115 | CCTATAT | -0.00637
116 | CACAACC | -0.0133
117 | ACAAAGC | 0.0737
118 | ACAAGCG | -0.0538
119 | TGGTAAG | 0.0565
120 | TGTTGTG | -0.062

test system: T4, Rep nickase domain of maize striate mosaic virus; experiment: as above
T4 sequence (Rep 1-117, printed without the tag): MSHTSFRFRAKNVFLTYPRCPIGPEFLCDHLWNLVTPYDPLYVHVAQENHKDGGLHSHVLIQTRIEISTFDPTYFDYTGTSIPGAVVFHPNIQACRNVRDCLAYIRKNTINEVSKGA
Experimental: as §1

Row | Sequence | uncleaved DNA left (log2)
121 | GATCGCT | -0.447
122 | CAATATC | -2.81
123 | TTATGGT | 0.903
124 | CTATGCT | -1.46
125 | TTTTCAG | -1.14
126 | TAGCGTT | -1.08
127 | AAGGACA | 0.823
128 | TCCCACC | -0.362
129 | ATTCCGC | -1
130 | AGAAGGG | -0.725
131 | CGCTCAC | -0.524
132 | TGTTGCA | -1.2
133 | CCAATGA | -1.13
134 | GTGAGGT | 1.64
135 | GACTTTC | 1.04
136 | AGACGCC | 1.28
137 | AGTGTTA | 0.992
138 | ACGTTTA | -0.641
139 | CCAGATC | -0.495
140 | TACATCA | -0.0112

Row | Sequence | uncleaved DNA left (log2)
141 | TTGCTCA | -0.973
142 | ATGGATC | 1.19
143 | GTGCCAG | -0.512
144 | TGCTGTG | -0.983
145 | CCGGGCC | 1.24
146 | CCGGACT | 1.63
147 | AGTGGCG | -0.693
148 | GTTATCC | 1.59
149 | CGACTGC | 1.64
150 | CTGTTCC | -0.0382
151 | CAGCTAA | -0.305
152 | GACGGGC | 0.982
153 | TCCGAGC | 0.583
154 | ATATCCA | -0.378
155 | CCTATAT | -0.744
156 | CACAACC | -0.711
157 | ACAAAGC | -1.15
158 | ACAAGCG | -0.0846
159 | TGGTAAG | -0.835
160 | TGTTGTG | -0.801

test system: T5, Rep nickase domain of porcine circovirus 2; experiment: as above
T5 sequence (Rep 2-116, printed without the tag): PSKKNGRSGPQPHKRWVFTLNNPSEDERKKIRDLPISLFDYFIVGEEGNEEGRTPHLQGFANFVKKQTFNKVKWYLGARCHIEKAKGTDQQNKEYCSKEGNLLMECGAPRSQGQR
Experimental: as §1

Row | Sequence | uncleaved DNA left (log2)
161 | GATCGCT | -0.258
162 | CAATATC | -0.408
163 | TTATGGT | -0.803
164 | CTATGCT | -1.99
165 | TTTTCAG | 0.101
166 | TAGCGTT | -3.4
167 | AAGGACA | 0.0377
168 | TCCCACC | -0.461
169 | ATTCCGC | -0.571
170 | AGAAGGG | 0.254
171 | CGCTCAC | -0.108
172 | TGTTGCA | -0.000763
173 | CCAATGA | 0.0123
174 | GTGAGGT | 0.16
175 | GACTTTC | -0.463
176 | AGACGCC | 0.132
177 | AGTGTTA | -0.648
178 | ACGTTTA | -0.0936
179 | CCAGATC | -0.0117
180 | TACATCA | -0.0379

Row | Sequence | uncleaved DNA left (log2)
181 | TTGCTCA | -0.0016
182 | ATGGATC | 0.261
183 | GTGCCAG | -0.0187
184 | TGCTGTG | 0.0506
185 | CCGGGCC | 0.156
186 | CCGGACT | -0.0265
187 | AGTGGCG | 0.18
188 | GTTATCC | 0.0675
189 | CGACTGC | 0.0625
190 | CTGTTCC | -0.12
191 | CAGCTAA | -0.172
192 | GACGGGC | 0.151
193 | TCCGAGC | -0.0364
194 | ATATCCA | -0.181
195 | CCTATAT | -0.342
196 | CACAACC | -0.601
197 | ACAAAGC | 0.277
198 | ACAAGCG | 0.0627
199 | TGGTAAG | 0.157
200 | TGTTGTG | 0.0334
